The whole screen tested about 310,000 compounds, of which about 2,200 (0.71%) showed an effect of 50% or more. The effect is printed as a negative number. The list shows a part of the results.

This assay deals with human ether-à-go-go-related gene (hERG) potassium channel (human, UniProt Q12809). The experiment in a line: primary screen, population patch clamp on CHO cells stably expressing hERG.
Sequence of human ether-à-go-go-related gene (hERG) potassium channel (Q12809 whole entry, looked up): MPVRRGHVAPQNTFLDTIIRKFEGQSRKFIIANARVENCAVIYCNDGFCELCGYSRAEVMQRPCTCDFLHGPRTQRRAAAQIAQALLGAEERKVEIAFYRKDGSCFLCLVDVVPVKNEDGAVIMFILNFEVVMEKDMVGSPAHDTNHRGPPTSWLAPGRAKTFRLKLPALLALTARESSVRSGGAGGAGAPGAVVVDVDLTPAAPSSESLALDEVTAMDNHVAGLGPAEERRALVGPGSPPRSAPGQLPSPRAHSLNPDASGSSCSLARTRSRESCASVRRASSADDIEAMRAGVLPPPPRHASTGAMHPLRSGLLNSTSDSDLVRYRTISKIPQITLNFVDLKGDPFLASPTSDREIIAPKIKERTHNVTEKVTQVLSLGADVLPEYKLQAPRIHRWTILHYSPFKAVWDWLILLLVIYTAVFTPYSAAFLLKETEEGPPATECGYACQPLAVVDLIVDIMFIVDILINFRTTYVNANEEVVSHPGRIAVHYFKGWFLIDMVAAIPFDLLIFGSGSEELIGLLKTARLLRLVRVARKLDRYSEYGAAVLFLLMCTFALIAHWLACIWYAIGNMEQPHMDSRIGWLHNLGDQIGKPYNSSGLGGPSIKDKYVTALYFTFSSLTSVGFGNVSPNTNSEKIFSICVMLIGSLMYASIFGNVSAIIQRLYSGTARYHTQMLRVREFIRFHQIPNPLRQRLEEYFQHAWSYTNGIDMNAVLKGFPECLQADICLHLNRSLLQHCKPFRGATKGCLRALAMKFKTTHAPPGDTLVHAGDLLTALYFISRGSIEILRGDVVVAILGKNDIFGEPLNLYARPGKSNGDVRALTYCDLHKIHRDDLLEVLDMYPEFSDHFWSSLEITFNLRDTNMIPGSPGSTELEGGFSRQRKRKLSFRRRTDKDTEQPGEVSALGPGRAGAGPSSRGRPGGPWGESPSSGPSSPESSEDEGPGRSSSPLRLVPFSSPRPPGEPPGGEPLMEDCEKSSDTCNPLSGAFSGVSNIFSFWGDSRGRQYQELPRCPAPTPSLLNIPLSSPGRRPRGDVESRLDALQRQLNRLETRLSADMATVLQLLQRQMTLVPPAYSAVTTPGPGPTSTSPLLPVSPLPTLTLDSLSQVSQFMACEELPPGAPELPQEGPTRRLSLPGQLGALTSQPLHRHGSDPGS
In the case of `COC(=O)Cn1c(=NC(=O)c2cc(OC)cc(OC)c2)sc2cc(OC)ccc21`, the “hERG current change (%, negative = inhibition) at 1uM” value is recorded as 16%. Next, `O=C(COC(=O)/C=C/c1cccc(C(F)(F)F)c1)NC(c1ccccc1)c1ccccc1`: -0.78%; `CN(C(=O)COC(=O)c1cc(-c2ccccc2Cl)nc2ccccc12)C1CCS(=O)(=O)C1` (stereo not drawn): 1.78%; `CCc1cc2cc(OC)ccc2nc1SCC(=O)NNC(=O)c1ccco1`: 13.5%.

Turning to `O=S(=O)(c1cccc2cccnc12)n1cnc2ccccc21`, the “hERG current change (%, negative = inhibition) at 1uM” value is 1.23%.

In the case of `CC(=O)c1ccc(OCC(=O)OCc2cc(-c3ccco3)on2)cc1`, the “hERG current change (%, negative = inhibition) at 1uM” value came out at 13.7%. As for `COc1cccc(C(C(=O)NC2CCCC2)N(C(=O)c2ccco2)c2ccc(NC(C)=O)cc2)c1OC` (stereo not drawn), the “hERG current change (%, negative = inhibition) at 1uM” value is -2.39%. With `CN(C)CCCNc1nc(N)c([N+](=O)[O-])c(NC2CCCCC2)n1`, the “hERG current change (%, negative = inhibition) at 1uM” value is reported as -4.92%. As to `O=C(Nc1ccc(Br)cc1)C1CCN(C(=O)c2ccc(F)cc2)CC1`, the “hERG current change (%, negative = inhibition) at 1uM” value was -13.2%.

As to `O=C(NCC1CCCO1)C(=O)N/N=C/c1c(F)cccc1Cl` (stereo not drawn), the “hERG current change (%, negative = inhibition) at 1uM” value came out at 8.49%.

Turning to `Cc1ccc(S(=O)(=O)N2CCN(CC(=O)NC(=O)NCc3ccco3)CC2)cc1C`, the “hERG current change (%, negative = inhibition) at 1uM” value was 7.92%. Consider `CCC1CCCCN1CCCNC(=O)C1CCN(c2ncnc3c2nc2n3CCCCC2)CC1` (stereo not drawn), for which the “hERG current change (%, negative = inhibition) at 1uM” value was 2.36%. Consider `CN1c2ccccc2C(C)(C)C12C=Nc1c(ccc3ccccc13)O2` (stereo not drawn), for which the “hERG current change (%, negative = inhibition) at 1uM” value is listed as 16.4%.

As to `CCCCNC(=O)C1CCN(Cc2ccc(OCc3ccccc3)c(OC)c2)CC1.O=C(O)C(=O)O`, the “hERG current change (%, negative = inhibition) at 1uM” value was -21.1%. For the compound `CCCn1c(SCC(=O)NCCc2ccc(Cl)cc2Cl)n[nH]c1=O`, the “hERG current change (%, negative = inhibition) at 1uM” value stood at 2.34%.

As to `CC12CCC(=O)N1C(C(=O)NCCN1C(=O)S/C(=C\c3ccc(F)cc3)C1=O)CS2` (stereo not drawn), the “hERG current change (%, negative = inhibition) at 1uM” value is on record as -0.0399%. For `CC(C)c1ccc2[nH]c(O)c(N=NC(=O)c3ccc(CSc4nncn4C)cc3)c2c1`, the “hERG current change (%, negative = inhibition) at 1uM” value is -0.234%.

Consider `Cc1ccc(C)c(NC(=O)c2ccc3c(=O)n4c(nc3c2)CCC4)c1`, for which the “hERG current change (%, negative = inhibition) at 1uM” value is given as -5.65%. Consider `COc1ccc(OC)c2c(N3CCN(C)CC3)cc(C(F)(F)F)nc12`, for which the “hERG current change (%, negative = inhibition) at 1uM” value is 14.3%. Next, `CN1CCN(CCCNC(=O)c2ccc(Cn3c(=S)[nH]c4ccc(Br)cc4c3=O)cc2)CC1`: 9.37%.

In the case of `Clc1ccc(-c2nnc(CNC3CC3)o2)cc1`, the “hERG current change (%, negative = inhibition) at 1uM” value was -3.48%. Regarding `CN(CC(=O)Nc1cc(S(=O)(=O)N2CCCC2)ccc1Cl)Cc1cccs1`, the “hERG current change (%, negative = inhibition) at 1uM” value is 4.58%. In the case of `Cc1nn(-c2ccccc2)c(Cl)c1/C=N/NC(N)=O` it was 11.7%; in that of `CCCC(=O)c1cc2c(cc1NC(=O)c1cccs1)OCCO2`, 21.4%. For the compound `COC(=O)C(CC(=O)c1ccccc1)CC(=O)c1ccccc1`, the “hERG current change (%, negative = inhibition) at 1uM” value is 8.13%. Regarding `CCc1ccccc1NC(=O)Nc1cnccn1`, the “hERG current change (%, negative = inhibition) at 1uM” value is 1.23%.

As for `Cc1ccccc1OCC(=O)N(Cc1cccc(F)c1)C1CCS(=O)(=O)C1` (stereo not drawn), the “hERG current change (%, negative = inhibition) at 1uM” value was determined as 10.1%. Consider `COc1cccc(-c2cc(-c3cccnc3)c(C#N)c(N)n2)c1`, for which the “hERG current change (%, negative = inhibition) at 1uM” value turned out to be 6.74%. In the case of `CC(=O)OC[C@H]1COc2ccc3ccccc3c2[C@H]1N(C)C(C)=O` it was -3.9%; in that of `O=C(NN=C1CCCC1)c1sc2ccccc2c1Cl`, -9.75%.

As to `C=CCON1C(=O)c2ccccc2C1=O`, the “hERG current change (%, negative = inhibition) at 1uM” value is on record as 17%.

On to `Cc1ccc2nc(Cl)c(C3CC(c4ccco4)=NN3C(=O)CCCC(=O)O)cc2c1` (stereo not drawn), for which the “hERG current change (%, negative = inhibition) at 1uM” value amounted to 8.17%. In the case of `COc1cc(Cl)cc(/C=C/c2ccc3ccccc3n2)c1OC(C)=O` it was 16.6%; in that of `CCC(c1nnc(SCC(=O)Nc2cc(S(C)(=O)=O)ccc2Cl)n1Cc1ccccc1)N(C)C` (stereo not drawn), -3.44%. Turning to `O=C(N/N=C/c1cccnc1)c1sc2ccccc2c1Cl`, the “hERG current change (%, negative = inhibition) at 1uM” value was 2.92%. `COc1cccc(-c2ccc(NC(=O)C3CCCN(CCCn4cccn4)C3)cc2)c1` (stereo not drawn): the “hERG current change (%, negative = inhibition) at 1uM” value is reported as -1.99%. `CCN(CC)S(=O)(=O)c1ccc2[nH]c(=O)cc(C(=O)Nc3ccccc3N3CCCC3)c2c1`: the “hERG current change (%, negative = inhibition) at 1uM” value is given as 6.7%.

On to `COc1ccc(CN2CC(=O)N(c3cccc(Cl)c3)C2=S)cc1OC`, for which the “hERG current change (%, negative = inhibition) at 1uM” value is given as 12.6%. As to `COc1ccc(C(C)=O)cc1CS(=O)(=O)CC(=O)O`, the “hERG current change (%, negative = inhibition) at 1uM” value was 23.3%. Turning to `Cc1c(C(=O)c2no[n+]([O-])c2C(=O)c2cnn(C)c2C)cnn1C`, the “hERG current change (%, negative = inhibition) at 1uM” value is given as 6.82%.

Turning to `Cc1cc(C)c2nc(N3C(=O)C(O)=C(C(=O)c4ccco4)C3c3ccco3)sc2c1.O=C(O)C(=O)O` (stereo not drawn), the “hERG current change (%, negative = inhibition) at 1uM” value was found to be 14.6%. In the case of `COc1ccc(CCNC(=O)C(NS(=O)(=O)c2cccc3nsnc23)C(C)C)cc1OC` (stereo not drawn) it was -2.12%; in that of `Cc1[nH]c(=O)[nH]c(=O)c1NC(=O)c1cccs1`, 9.62%; in that of `CCCN1CCC(=O)N([C@H](COc2ccccc2)Cc2ccccc2)CC1`, -52.4%. In the case of `O=C(c1ccc(F)cc1)C1CCN(C(=O)NC2CCCCC2)CC1` it was 2.12%; in that of `Cn1c(SCc2nnc(-c3ccccc3Br)o2)nc2sc3c(c2c1=O)CCC3`, 18.1%. `CC(CCN1CCN=C1N(C)C)c1ccccc1` (stereo not drawn): the “hERG current change (%, negative = inhibition) at 1uM” value turned out to be 1.25%. For the compound `O=C(NCCCn1ccnc1)C(=O)c1c[nH]c2ccccc12`, the “hERG current change (%, negative = inhibition) at 1uM” value stood at 3.2%. As to `Cc1noc(C)c1S(=O)(=O)N1CCC(C(=O)NC2CCN(Cc3ccccc3)CC2)CC1`, the “hERG current change (%, negative = inhibition) at 1uM” value is listed as -2.52%. For the compound `CC(C)(Oc1ccc(Cl)cc1)C(=O)OCC(=O)N1CCCC1`, the “hERG current change (%, negative = inhibition) at 1uM” value is given as 12.3%. In the case of `COc1cccc(NC(=O)C(Sc2nnc(-c3ccncc3)n2-c2ccc(Cl)cc2)c2ccccc2)c1` (stereo not drawn) it was 4.74%. In the case of `CC1c2nc3ccccc3n2C(CC(=O)NC2CC2)C(=O)N1Cc1ccccc1` (stereo not drawn) it was 14.3%; in that of `COc1ccc(C=O)cc1OS(=O)(=O)c1ccc(NC(C)=O)cc1`, 7.57%; in that of `Cc1c(Cc2ccccc2)c(=O)oc2cc(OC(C)C(=O)NCC3CCC(C(=O)O)CC3)c(Cl)cc12` (stereo not drawn), 24.8%.

Source of the values: publication PMC4336329 (PLoS ONE, 2015).
